# Experimental data published in the supplement of paper PMC8728848.
# This is one part of the list.
# B1: LBL-152 (Laetiporus bicolor), B0D650 (protein)
# chain: MSNEYNPPLGIAFRLCGLASDRVLFSRVSPSPEVFHHPKSEVYPDQWFVAIPGSGQNAGCYAIKSKNTGKVLFSRMSPDPRVGHIDGDGKYPDNWFKFEAGSGKYAGYFRLRAVASDTVLVSRTSTGTDTQVINYPATSAKYDDQYFTILFDHHHHHH
# Key:
# Assay in all cases: glycan array binding signal (z-score within array); higher = stronger binding
# Conditions in all cases: glycan notation: IUPAC condensed, linker removed
# [1] = target: GlcNAc(b1-3)Gal(b1-3)GalNAc
# Outline: (§1)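 Glycan array data were curated from 3228 arrays in the Consortium for Functional Glycomics database and kept only where the protein sequence was available. Glycan names were converted to IUPAC-condensed notation, and columns mapping to the same glycan were averaged. The binding signal is a within-array Z-score, averaged across arrays of the same protein sequence at different concentrations or buffers and across linkers. Negative Z-scores can be read as non-binding.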
# [2] = target: GlcNAc(b1-3)Gal(b1-4)Glc
# Outline: as §1
# [3] = target: GlcNAc(b1-3)Gal(b1-4)GlcNAc
# Outline: as §1
# [4] = target: GlcNAc(b1-3)Gal(b1-4)GlcNAc(b1-2)Man(a1-3)[GlcNAc(b1-3)Gal(b1-4)GlcNAc(b1-2)Man(a1-6)]Man(b1-4)GlcNAc(b1-4)GlcNAc
# Outline: as §1
# [5] = target: GlcNAc(b1-3)Gal(b1-4)GlcNAc(b1-2)Man(a1-3)[GlcNAc(b1-3)Gal(b1-4)GlcNAc(b1-2)Man(a1-6)]Man(b1-4)GlcNAc(b1-4)[Fuc(a1-6)]GlcNAc
# Outline: as §1
# [6] = target: GlcNAc(b1-3)Gal(b1-4)GlcNAc(b1-2)[GlcNAc(b1-3)Gal(b1-4)GlcNAc(b1-6)]Man(a1-6)[GlcNAc(b1-3)Gal(b1-4)GlcNAc(b1-2)Man(a1-3)]Man(b1-4)GlcNAc(b1-4)GlcNAc
# Outline: as §1
# [7] = target: GlcNAc(b1-3)Gal(b1-4)GlcNAc(b1-3)Gal(b1-4)GlcNAc
# Outline: as §1
# [8] = target: GlcNAc(b1-3)Gal(b1-4)GlcNAc(b1-3)Gal(b1-4)GlcNAc(b1-2)Man(a1-3)[GlcNAc(b1-3)Gal(b1-4)GlcNAc(b1-3)Gal(b1-4)GlcNAc(b1-2)Man(a1-6)]Man(b1-4)GlcNAc(b1-4)GlcNAc
# Outline: as §1
# [9] = target: GlcNAc(b1-3)Gal(b1-4)GlcNAc(b1-3)Gal(b1-4)GlcNAc(b1-2)Man(a1-3)[GlcNAc(b1-3)Gal(b1-4)GlcNAc(b1-3)Gal(b1-4)GlcNAc(b1-2)Man(a1-6)]Man(b1-4)GlcNAc(b1-4)[Fuc(a1-6)]GlcNAc
# Outline: as §1
# [10] = target: GlcNAc(b1-3)Gal(b1-4)GlcNAc(b1-3)Gal(b1-4)GlcNAc(b1-2)[GlcNAc(b1-3)Gal(b1-4)GlcNAc(b1-3)Gal(b1-4)GlcNAc(b1-6)]Man(a1-6)[GlcNAc(b1-3)Gal(b1-4)GlcNAc(b1-3)Gal(b1-4)GlcNAc(b1-2)Man(a1-3)]Man(b1-4)GlcNAc(b1-4)[Fuc(a1-6)]GlcNAc
# Outline: as §1
# [11] = target: GlcNAc(b1-3)Gal(b1-4)GlcNAc(b1-3)Gal(b1-4)GlcNAc(b1-3)Gal(b1-4)GlcNAc(b1-2)Man(a1-3)[GlcNAc(b1-3)Gal(b1-4)GlcNAc(b1-3)Gal(b1-4)GlcNAc(b1-3)Gal(b1-4)GlcNAc(b1-2)Man(a1-6)]Man(b1-4)GlcNAc(b1-4)GlcNAc
# Outline: as §1
# [12] = target: GlcNAc(b1-3)Gal(b1-4)GlcNAc(b1-3)Gal(b1-4)GlcNAc(b1-3)Gal(b1-4)GlcNAc(b1-2)Man(a1-3)[GlcNAc(b1-3)Gal(b1-4)GlcNAc(b1-3)Gal(b1-4)GlcNAc(b1-3)Gal(b1-4)GlcNAc(b1-2)Man(a1-6)]Man(b1-4)GlcNAc(b1-4)[Fuc(a1-6)]GlcNAc
# Outline: as §1
# [13] = target: GlcNAc(b1-3)Gal(b1-4)GlcNAc(b1-3)Gal(b1-4)GlcNAc(b1-3)Gal(b1-4)GlcNAc(b1-2)[GlcNAc(b1-3)Gal(b1-4)GlcNAc(b1-3)Gal(b1-4)GlcNAc(b1-3)Gal(b1-4)GlcNAc(b1-6)]Man(a1-6)[GlcNAc(b1-3)Gal(b1-4)GlcNAc(b1-3)Gal(b1-4)GlcNAc(b1-3)Gal(b1-4)GlcNAc(b1-2)Man(a1-3)]Man(b1-4)GlcNAc(b1-4)[Fuc(a1-6)]GlcNAc
# Outline: as §1
# [14] = target: GlcNAc(b1-3)Gal(b1-4)GlcNAc(b1-3)Gal(b1-4)GlcNAc(b1-3)Gal(b1-4)GlcNAc(b1-3)Gal(b1-4)GlcNAc(b1-2)Man(a1-3)[GlcNAc(b1-3)Gal(b1-4)GlcNAc(b1-3)Gal(b1-4)GlcNAc(b1-3)Gal(b1-4)GlcNAc(b1-3)Gal(b1-4)GlcNAc(b1-2)Man(a1-6)]Man(b1-4)GlcNAc(b1-4)GlcNAc
# Outline: as §1
# [15] = target: GlcNAc(b1-3)Gal(b1-4)GlcNAc(b1-3)Gal(b1-4)GlcNAc(b1-3)Gal(b1-4)GlcNAc(b1-3)Gal(b1-4)GlcNAc(b1-2)Man(a1-3)[GlcNAc(b1-3)Gal(b1-4)GlcNAc(b1-3)Gal(b1-4)GlcNAc(b1-3)Gal(b1-4)GlcNAc(b1-3)Gal(b1-4)GlcNAc(b1-2)Man(a1-6)]Man(b1-4)GlcNAc(b1-4)[Fuc(a1-6)]GlcNAc
# Outline: as §1
# [16] = target: GlcNAc(b1-3)Gal(b1-4)GlcNAc(b1-3)Gal(b1-4)GlcNAc(b1-3)Gal(b1-4)GlcNAc(b1-3)Gal(b1-4)GlcNAc(b1-2)[GlcNAc(b1-3)Gal(b1-4)GlcNAc(b1-3)Gal(b1-4)GlcNAc(b1-3)Gal(b1-4)GlcNAc(b1-3)Gal(b1-4)GlcNAc(b1-6)]Man(a1-6)[GlcNAc(b1-3)Gal(b1-4)GlcNAc(b1-3)Gal(b1-4)GlcNAc(b1-3)Gal(b1-4)GlcNAc(b1-3)Gal(b1-4)GlcNAc(b1-2)Man(a1-3)]Man(b1-4)GlcNAc(b1-4)[Fuc(a1-6)]GlcNAc
# Outline: as §1
# [17] = target: GlcNAc(b1-3)Gal(b1-4)GlcNAc(b1-3)Gal(b1-4)GlcNAc(b1-3)GalNAc
# Outline: as §1
# [18] = target: GlcNAc(b1-3)Gal(b1-4)GlcNAc(b1-3)GalNAc
# Outline: as §1
# [19] = target: GlcNAc(b1-3)Gal(b1-4)GlcNAc(b1-3)[GlcNAc(b1-3)Gal(b1-4)GlcNAc(b1-3)]GalNAc
# Outline: as §1
# [20] = target: GlcNAc(b1-3)Gal(b1-4)GlcNAc(b1-6)[Gal(b1-3)]GalNAc
# Outline: as §1
# [21] = target: GlcNAc(b1-3)Gal(b1-4)GlcNAc(b1-6)[GlcNAc(b1-3)Gal(b1-3)]GalNAc
# Outline: as §1
# [22] = target: GlcNAc(b1-3)Gal(b1-4)GlcNAc(b1-6)[GlcNAc(b1-3)]Gal(b1-4)GlcNAc
# Outline: as §1
# [23] = target: GlcNAc(b1-3)GalNAc
# Outline: as §1
# [24] = target: GlcNAc(b1-3)Man
# Outline: as §1
# [25] = target: GlcNAc(b1-3)[GlcNAc(b1-4)][GlcNAc(b1-6)]GlcNAc
# Outline: as §1
# [26] = target: GlcNAc(b1-3)[GlcNAc(b1-6)]Gal(b1-4)GlcNAc
# Outline: as §1
# [27] = target: GlcNAc(b1-3)[GlcNAc(b1-6)]GalNAc
# Outline: as §1
# [28] = target: GlcNAc(b1-4)Gal(b1-4)GlcNAc
# Outline: as §1
# [29] = target: GlcNAc(b1-4)GlcNAc
# Outline: as §1
# [30] = target: GlcNAc(b1-4)GlcNAc(b1-4)GlcNAc
# Outline: as §1
# [31] = target: GlcNAc(b1-4)GlcNAc(b1-4)GlcNAc(b1-4)GlcNAc(b1-4)GlcNAc
# Outline: as §1
# [32] = target: GlcNAc(b1-4)GlcNAc(b1-4)GlcNAc(b1-4)GlcNAc(b1-4)GlcNAc(b1-4)GlcNAc
# Outline: as §1
# [33] = target: GlcNAc(b1-4)[GlcNAc(b1-6)]GalNAc
# Outline: as §1
# [34] = target: GlcNAc(b1-6)Gal(b1-4)GlcNAc
# Outline: as §1
# [35] = target: GlcNAc(b1-6)GalNAc
# Outline: as §1
# [36] = target: GlcNAc6S(b1-3)Gal(b1-4)GlcNAc
# Outline: as §1
# [37] = target: Kdn(a2-3)Gal(b1-3)GalNAc
# Outline: as §1
# [38] = target: Kdn(a2-3)Gal(b1-3)GlcNAc
# Outline: as §1
# [39] = target: Kdn(a2-3)Gal(b1-4)Glc
# Outline: as §1
# [40] = target: Kdn(a2-3)Gal(b1-4)GlcNAc
# Outline: as §1
# [41] = target: Kdn(a2-3)Gal(b1-4)[Fuc(a1-3)]GlcNAc
# Outline: as §1
# [42] = target: Kdn(a2-6)Gal(b1-4)GlcNAc
# Outline: as §1
# [43] = target: Man(a1-2)Man(a1-2)Man(a1-3)Man
# Outline: as §1
# [44] = target: Man(a1-2)Man(a1-2)Man(a1-6)[Man(a1-3)]Man
# Outline: as §1
# [45] = target: Man(a1-2)Man(a1-3)Man
# Outline: as §1
binder,measurement,setting,value
B1,glycan array binding signal (z-score),[1],-0.149
same,glycan array binding signal (z-score),[2],-0.156
same,glycan array binding signal (z-score),[3],-0.157
same,glycan array binding signal (z-score),[4],-0.12
same,glycan array binding signal (z-score),[5],-0.107
same,glycan array binding signal (z-score),[6],-0.133
same,glycan array binding signal (z-score),[7],-0.15
same,glycan array binding signal (z-score),[8],0.023
same,glycan array binding signal (z-score),[9],0.071
same,glycan array binding signal (z-score),[10],0.132
same,glycan array binding signal (z-score),[11],0.2
same,glycan array binding signal (z-score),[12],1.18
same,glycan array binding signal (z-score),[13],0.355
same,glycan array binding signal (z-score),[14],3.47
same,glycan array binding signal (z-score),[15],4.51
same,glycan array binding signal (z-score),[16],2.01
same,glycan array binding signal (z-score),[17],-0.155
same,glycan array binding signal (z-score),[18],-0.152
same,glycan array binding signal (z-score),[19],-0.15
same,glycan array binding signal (z-score),[20],-0.153
same,glycan array binding signal (z-score),[21],-0.148
same,glycan array binding signal (z-score),[22],-0.155
same,glycan array binding signal (z-score),[23],-0.15
same,glycan array binding signal (z-score),[24],-0.156
same,glycan array binding signal (z-score),[25],-0.153
same,glycan array binding signal (z-score),[26],-0.145
same,glycan array binding signal (z-score),[27],-0.154
same,glycan array binding signal (z-score),[28],-0.153
same,glycan array binding signal (z-score),[29],-0.157
same,glycan array binding signal (z-score),[30],-0.157
same,glycan array binding signal (z-score),[31],-0.163
same,glycan array binding signal (z-score),[32],-0.152
same,glycan array binding signal (z-score),[33],-0.141
same,glycan array binding signal (z-score),[34],-0.155
same,glycan array binding signal (z-score),[35],-0.155
same,glycan array binding signal (z-score),[36],-0.157
same,glycan array binding signal (z-score),[37],-0.157
same,glycan array binding signal (z-score),[38],-0.16
same,glycan array binding signal (z-score),[39],-0.145
same,glycan array binding signal (z-score),[40],-0.153
same,glycan array binding signal (z-score),[41],-0.161
same,glycan array binding signal (z-score),[42],-0.153
same,glycan array binding signal (z-score),[43],-0.158
same,glycan array binding signal (z-score),[44],-0.157
same,glycan array binding signal (z-score),[45],-0.152
